# Measured values taken from PubChem BioAssay AID686979 (National Center for Advancing Translational Sciences (NCATS), 2013).
# In all, about 420,000 compounds went through this assay and about 50,000 (12%) were called active. The shares of active, inactive and inconclusive entries below differ from those in the screen. Calls follow the shape of the dose curve; as a rule, active = well fitted inhibition curve with a large enough effect; inconclusive = small, poorly fitted or top-dose-only effect; inactive = flat fitted curve, though single readings scatter. Potencies of inconclusive entries are left out as doubtful fits.
# Assay: qHTS for Inhibitors of human tyrosyl-DNA phosphodiesterase 1 (TDP1): qHTS in cells in presence of CPT; also: nearly all actives have a fitted effect of over 55% in size
# Details: chicken DT40 Tdp1-/-;hTDP1 cells + 20 nM CPT, ATP luminescence, 48 h; activity change, negative = growth inhibition: at 46.2 µM (top of the series) unless noted
# Summary of the method: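 Chicken DT40 Tdp1-/- cells complemented with human TDP1, 400 cells/well, exposed to compounds plus 20 nM camptothecin for at least 48 h at 37 C; viability read as ATP content by CellTiter-Glo luminescence.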
# % is scaled to controls: 0 for no effect and ±100 for the full control effect; potency is read from the fitted curve at half-maximal effect; tags tell the direction and shape of the fitted curve.
SMILES,Potency,"activity change, negative = growth inhibition"
COc1ccc(-n2nc3cc(C)c(NC(=O)c4ccc(C)cc4C)cc3n2)cc1Cl,inactive,
O=C(NCC(c1ccco1)N1CCCC1)c1cccc(NS(=O)(=O)c2ccccc2)c1 (stereo not given),"inconclusive [inhibitor, single point]",
Cc1ccc(OCC(=O)OCc2cc(=O)n3c(C)csc3n2)cc1,inactive,
Cc1ccccc1NC(=O)N1CCC(CN2CCCC2)CC1,inactive,
Cc1cccc(C)c1NC(=O)Cc1cccs1,inactive,
Cn1c(-c2ccc(F)cc2)cnc1NCc1ccc(F)cc1F,inactive,
CC1=C(Nc2ccc(C(=O)O)cc2)C(=O)c2ccccc2C1=O,"inconclusive [inhibitor, single point]",
COc1ccc(C2(C(=O)NCC3Cc4cccc(-c5cccnc5)c4O3)CCCC2)cc1 (stereo not given),,inactive: -6.52% [at 9.04 µM]
O=C(Cn1nc(C(F)(F)F)c2c1CCC2)N1CCN(c2ccccc2)CC1,inactive,
COc1ccc(/C=N/NC(=O)c2nc(-c3ccccc3)cc(-c3ccccc3)n2)cc1,"inconclusive [inhibitor, single point]",
CCC1CCCCN1C(=O)c1ccc(OC2CCN(C(=O)C3CC3)CC2)cc1 (stereo not given),"inconclusive [inhibitor, single point]",
COc1cc(CNc2ncnc3c2ncn3[C@H]2CN(Cc3cccs3)C[C@@H](CO)O2)cc(OC)c1OC,"inconclusive [inhibitor, single point]",
COc1ccc(CCn2c(=N)c(C(=O)NCC3CCCO3)cc3c(=O)n4cccc(C)c4nc32)cc1 (stereo not given),"inconclusive [inhibitor, partial curve, poor fit]",
O=C(CNS(=O)(=O)c1ccc(F)cc1)N1CCCC1,inactive,
N#CC1=C2SCN(C3CCCCC3)CN2C(=O)CC1c1ccc(F)cc1 (stereo not given),"inconclusive [inhibitor, single point]",
CCc1ccc(NC(=O)c2cc3c(C)nc4ccccc4c3o2)cc1,active: 18.4 µM,
O=C(O)CN=C(NS(=O)(=O)c1ccc(Cl)cc1)c1ccc(F)cc1,inactive,
NC(=O)c1c(NC(=O)c2ccccc2)sc2c1CCN(Cc1ccccc1)C2,"inconclusive [inhibitor, single point]",
Cc1noc(C)c1CS(=O)(=O)c1ccc([N+](=O)[O-])cc1,inactive,
O=C(CSc1nc2c([nH]c3ccccc32)c(=O)n1-c1ccccc1)Nc1ccccc1F,"inconclusive [inhibitor, partial curve]",
O=C1CN(C(=O)c2ccccc2C(=O)O)c2ccccc2N1,inactive,
Cc1ccccc1OCC(=O)Nc1ccccc1C(=O)NC1CC1,"inconclusive [inhibitor, single point]",
Cc1cc(NC(=O)CC2CCCC2)ccc1Br,inactive,
COC(=O)[C@@H]1[C@@H](C)OC(=O)N[C@H]1c1ccccc1,inactive,
CCOc1ccc(NC(=O)C2CCCN(S(=O)(=O)c3ccc(Br)s3)C2)cc1 (stereo not given),inactive,

SMILES,Potency,"activity change, negative = growth inhibition"
C/C(=N\N=C(N)N)c1cccc([N+](=O)[O-])c1,"inconclusive [inhibitor, single point]",
CC[n+]1c(/C=C2/C=C(C)CC(C)(C)C2)sc2ccc(OC)cc21,active: 2.31 µM,
OC[C@@H]1[C@@H](c2ccccc2)C(c2cccc(Cl)c2)=NN1c1ccccc1,active: 20.6 µM,
Cc1cc(C)c(NC(=O)C2CCCN2CCOC(=O)c2cccc([N+](=O)[O-])c2)c(C)c1 (stereo not given),"inconclusive [inhibitor, partial curve]",
COc1cccc(CC(NC(C)=O)C(=O)NC2CCN(c3nc(C)cc(C)c3C#N)CC2)c1OC (stereo not given),inactive,
CC(O)[C@@]1(O)CC[C@H]2[C@@H]3CC[C@H]4C[C@@H](O)CC[C@]4(C)C3=CC[C@@]21C (stereo not given in full),"inconclusive [inhibitor, single point]",
COC(=O)N/N=C\c1ccc(OC/C=C/c2ccccc2)c(OC)c1,inactive,
NCCSc1c(-c2ccc(Cl)cc2)[nH]c2ccccc12,"inconclusive [inhibitor, single point]",
Cc1ccc2[nH]cc(S(=O)(=O)c3ccc(C(C)C)cc3)c(=O)c2c1,inactive,
Cc1cc2oc3ccc(NCCCn4ccnc4)cc3c(=O)c2cc1C,"inconclusive [inhibitor, single point]",
O=[N+]([O-])c1ccccc1/C=N/NC1=NCCN1,inactive,
COc1ccc(C(=O)Nc2cccc(-c3nc4cccnc4s3)c2C)c(OC)c1,active: 20.6 µM,
O=C(Nc1ccncc1)c1cc(S(=O)(=O)N2CCOCC2)ccc1Cl,inactive,
O=C(N/N=C/c1cc2c(cc1Br)OCO2)c1ccccn1,inactive,
S=C(Nc1ccccc1)c1ccccn1,active: 0.651 µM,
CCOC(=O)c1c(NC(=O)CSc2nc3c(c(=O)n(C)c(=O)n3C)n2C(C)C)sc(C)c1C,inactive,
CCc1nc2ccc(C(=O)NCCc3ccccn3)cn2c1N(C)Cc1nccs1,"inconclusive [inhibitor, partial curve, poor fit]",
O=C(OCCOc1ccc(Cl)cc1)c1cc(S(=O)(=O)N2CCCCC2)ccc1N1CCOCC1,active: 13 µM,
COc1ccc(C2SCCN2S(=O)(=O)c2ccccc2)cc1OC (stereo not given),"inconclusive [inhibitor, single point]",
CN1CCN(S(=O)(=O)c2cc(C(F)(F)F)ccc2Cl)CC1,inactive,
Cc1cccc(-c2nn(-c3ccccc3)cc2CNCCO)c1,"inconclusive [inhibitor, single point]",
CC(=O)N1c2c(cc(Br)cc2S(=O)(=O)Nc2ccccc2C)CC1C (stereo not given),"inconclusive [inhibitor, partial curve]",
COC(=O)C1=CN(Cc2ccc(OC)c(OC)c2)C=C(C(=O)OC)C1c1ccccc1F,"inconclusive [inhibitor, single point]",
CCN(CC)C(=S)Nc1ccc(C(=O)OC)cc1,inactive,
Cc1cccc(-n2cnc3cc(C(=O)NCC4CCCO4)ccc32)c1 (stereo not given),active: 9.2 µM,

SMILES,Potency,"activity change, negative = growth inhibition"
CN(CC(=O)Nc1ccccc1Cl)C(=O)COC(=O)c1ccc(S(=O)(=O)C(F)F)cc1,inactive,
COc1ccc(Cl)cc1N(CC(=O)Nc1ccc2c(c1)OCCO2)S(C)(=O)=O,"inconclusive [inhibitor, partial curve, poor fit]",
CN1Cc2c(N3CCOCC3)nc(SCCC#N)c(C#N)c2CC1(C)C,"inconclusive [inhibitor, single point]",
COc1ccc(C(c2nnnn2C2CCCCC2)N2CCN(C)CC2)c(OC)c1 (stereo not given),inactive,
CC(c1ccccc1)N(CCC(c1ccccc1)C1CCOC(C)(C)C1)C(=O)c1ccco1 (stereo not given),"inconclusive [inhibitor, single point]",
COc1cccc(-c2cc3nc(NCc4ccc(C)cc4C)n(C)c(=O)c3s2)c1,"inconclusive [inhibitor, single point]",
COc1ccc(Br)cc1CN1CCN(C(=O)c2ccc(OC)c(OC)c2)CC1,"inconclusive [inhibitor, single point]",
CCCCOc1ccc(S(=O)(=O)NC(=O)C2(C)CCN2C(=O)c2cccc(F)c2)cc1 (stereo not given),inactive,
COc1ccc(-c2nc(C)c(CCNC(=O)c3ccccc3Br)s2)cc1OC,"inconclusive [inhibitor, single point]",
COc1ccc(N2C3=C(CC4=C2CC(C)(C)CC4=O)C(=O)CC(C)(C)C3)cc1,active: 4.61 µM,
Cc1c2cnn(CC(=O)NCc3ccc(F)cc3)c(=O)c2c(C)n1Cc1ccccc1Cl,"inconclusive [inhibitor, single point]",
O=C(NCc1ccco1)c1cccn2c(=O)c3c4c(sc3nc12)CCCC4,active: 9.2 µM,
O=C(COC(=O)c1ccc2ccccc2n1)Nc1cccc(S(=O)(=O)NC2=NCCCCC2)c1,inactive,
CCOc1cc(Br)c(C2C(C(=O)OC)=C(C)NC3=C2C(=O)c2ccccc23)cc1OCC (stereo not given),active: 4.61 µM,
O=C(Nc1cccc(C(F)(F)F)c1)c1ccc(F)c(S(=O)(=O)N2CCc3ccccc3C2)c1,active: 14.6 µM,
COCCCNC(=O)C1CCN(c2ncnc3c2nc2n3CCCCC2)CC1,inactive,
Cc1cccc(CSC2=CS(=O)(=O)c3ccccc3N2)c1,"inconclusive [inhibitor, partial curve]",
Cc1cccc(C(=O)Nc2nnc(S(=O)(=O)N3CCCCCC3)s2)c1,inactive,
COc1ccc(CCNC(=O)C/C(C)=N/NC(=O)C23CC4CC(CC(C4)C2)C3)cc1OC,"inconclusive [inhibitor, partial curve, poor fit]",
CN1C(=S)SC(/[N+]([O-])=C\c2ccccc2F)C1(C)C (stereo not given),inactive,
O=S(=O)(c1ccccc1Cl)N1CCCC1c1nc(-c2cccc(Cl)c2)no1 (stereo not given),,inconclusive: -31.1% [inhibitor]
O=C1CCCN1c1ccc(S(=O)(=O)NCc2ccco2)cc1,,inconclusive: -31.4% [inhibitor]
C#CCOCCOCCOCCNc1nc(N2CCN(C(=O)CCCCCCCCCCNC(=O)Cn3cc(C[C@@H](C)O)nn3)CC2)nc(N2CCN(C(=O)CCCCCCCCCCNC(=O)[C@@H](CCC(=O)O)n3cc(CCCCCN)nn3)CC2)n1,"inconclusive [inhibitor, single point]",
COc1ccc(/C=C2/CCC(CN3CCOCC3)C2=O)cc1 (stereo not given),active: 1.16 µM,
Cc1nc2c(C(=O)NCCC(C)C)cnn2c(C)c1Cc1c(F)cccc1Cl,active: 20.6 µM,
